Results: PubChem BioAssay AID463173 (ICCB-Longwood Screening Facility, Harvard Medical School, 2010)
Screen size: about 52,000 compounds; about 4,300 (8.3%) were called active. No stated cut-off is given here; in the data, active means survival mostly below about 52% (no sharp cut-off); inactive means mostly above about 56%. The list shows a part of the results.

The molecules below were run on DeltatarO mutant (assay: S. aureus survival, RN4220 and DeltatarO strains – OD600, teichoic acid synthesis inhibitors, primary screen (AID 463173)). Conditions: S. aureus RN4220 wild type/DeltatarO growth, OD600, 18 h, active compounds read low, screened at 18.75 µg/mL (by protocol).

Row | Structure (SMILES) | survival
1 | CC(=O)N1c2ccccc2CC1C(=O)N1CCN(c2cccc(Cl)c2)CC1 (configuration not stated) | inactive: 85%
2 | Cc1ccc(-c2cn3c(n2)sc2cc(C(=O)NCc4cccs4)ccc23)cc1 | inactive: 78%
3 | Oc1cccc(N=Cc2c[nH]c3ccccc23)c1 | inactive: 106%
4 | CCCCNC(=O)Cn1c(=O)cc(C)c2c(C)nn(-c3ccc(CC)cc3)c21 | inactive: 55%
5 | CCC1CN(C(=O)N2CCC(C(=O)NCCc3ccc(C)cc3)CC2)c2ccccc2O1 (configuration not stated) | inactive: 79%
6 | O=C(CCc1nnc2n(Cc3ccccc3Cl)c(=O)c3ccccc3n12)Nc1ccc(F)c(F)c1 | inactive: 92%
7 | CCOCCCNC(=O)CCC(=O)NNc1nc2ccccc2c2nc(-c3ccccc3)nn12 | inactive: 83%
8 | Cc1oc(-c2ccccc2)nc1CSc1nnc(C)n2c1cc1sccc12 | inactive: 68%
9 | CCc1c(C)nc2c(OC)cccc2c1Cl | inactive: 92%
10 | CCOC(=O)CSc1nc2c(sc3ccccc32)c(=O)n1Cc1ccc(C)cc1 | inactive: 96%
11 | CC(=O)NCCNc1nc2c(-c3ccc(C)cc3)nnn2c2ccccc12 | inactive: 79%
12 | CCc1sc(Nc2ccc(C)cc2Br)nc1-c1cc2cccc(OC)c2oc1=O | inactive: 89%
13 | CCCN(CCC)C(=O)Cn1c(=O)n(-c2ccc(C)cc2)c(=O)c2ccc(C(=O)NCc3ccccc3Cl)cc21 | inactive: 80%
14 | CNC(=O)C1CCN(Cc2cc3ccccc3n2Cc2ccccc2C)CC1 | inactive: 78%
15 | COCCNC(=O)C(=O)NCC(c1cccnc1)N1CCN(c2ccccc2OC)CC1 (configuration not stated) | inactive: 64%
16 | Cc1ccc(CSc2ccc(-c3cccs3)nn2)cc1 | inactive: 89%
17 | O=C(Cn1ncc2c3ccccc3n(Cc3ccccc3F)c2c1=O)NC1CCCCCC1 | inactive: 84%
18 | O=C(NCc1ccccc1Cl)c1cc2c(s1)-c1ccccc1SC2 | inactive: 65%
19 | CC(C)(C)NC(=O)c1cnn(-c2ccccc2)c1C1CCN(C(=O)OC(C)(C)C)CC1 | inactive: 78%
20 | O=S(=O)(Nc1cccc(-c2ccc(N3CCCCCC3)nn2)c1)c1ccccc1F | inactive: 90%
21 | CC1(C)CC(=O)C(C=NCCCN2CCCC2=O)=C(O)C1 | inactive: 94%
22 | CCC(=O)Nc1ccccc1-c1nc2ccccc2n(CC(=O)c2ccc(C)c(C)c2)c1=O | active: 33%
23 | Cc1ccccc1-c1nnc(CN2CCN(c3cccc(C)c3C)CC2)o1 | inactive: 61%

Row | Structure (SMILES) | survival
24 | Brc1ccc(-c2nnc3sc(CN4CCCCC4)cn23)cc1 | inactive: 75%
25 | COc1cccc(NC(=O)CSc2nc3c([nH]c4ccccc43)c(=O)n2-c2ccccc2)c1 | inactive: 76%
26 | CCOc1ccccc1NC(=O)CSc1nnc(N)s1 | inactive: 104%
27 | Cc1ccc(NC(=O)CSc2nnc(C)n3c2cc2sccc23)c(C)c1 | inactive: 71%
28 | CCCN1C(=O)c2[nH]nc(-c3ccccc3O)c2C1c1cccc(OCc2ccccc2)c1 (configuration not stated) | active: 8%
29 | COc1ccc(OC)c(CNC(=O)c2cc3cc4ccc(OC)cc4nc3o2)c1 | inactive: 83%
30 | Cc1ccc(C(=O)/C=C/c2cn(CC(O)CN3CCc4ccccc43)c3ccccc23)cc1 (configuration not stated) | inactive: 73%
31 | Cc1cc(-n2c(C)nc3ccccc3c2=O)ccc1NC(=O)c1ccc(C)c([N+](=O)[O-])c1 | active: 37%
32 | Cc1ccc(CN(C(=O)COc2ccc(Cl)c(C)c2)c2ccccn2)o1 | inactive: 52%
33 | CCc1nc2sc3c(N4CCC(C)CC4)ncnc3c2c2c1CCCC2 | inactive: 134%
34 | Cc1oc2ncn(C)c(=O)c2c1C(=O)Nc1ccccn1 | inactive: 102%
35 | O=C(CN1C(=O)COc2ccc(S(=O)(=O)N3CCOCC3)cc21)N1CCN(c2cccc(C(F)(F)F)c2)CC1 | inactive: 93%
36 | COc1cc(C2c3c(-c4c(C)cc(C)cc4O)n[nH]c3C(=O)N2CCO)cc(OC)c1OC (configuration not stated) | inactive: 69%
37 | Cc1nc2nc(SCc3c(F)cccc3Cl)nn2c(C)c1Cc1ccccc1 | inactive: 66%
38 | CN(C)S(=O)(=O)c1ccc(C(=O)NCCS(=O)(=O)N2CCN(c3ccccc3)CC2)cc1 | inactive: 73%
39 | Cc1ccc(-c2cc(-c3ccc4c(c3)NC(=O)CO4)nc3c2COc2ccc(C)cc2-3)cc1 | inactive: 96%
40 | COc1ccc(NC(=O)CCN2CCN(CCO)CC2)c(OC)c1 | inactive: 70%
41 | O=C(Nc1ccc2nc(SCc3ccccc3)sc2c1)c1cccc(F)c1 | inactive: 91%
42 | COc1ccc(OCCSc2nc(C)c(Cc3ccccc3)c(=O)[nH]2)cc1 | inactive: 58%
43 | COc1ccc(Oc2nc3c(c(=O)n(C)c(=O)n3C)n2Cc2ccccc2Cl)cc1 | inactive: 54%
44 | CCN(CC)C(=O)CSc1nnc(-c2ccc(OC)cc2)n1CCOC | inactive: 65%
45 | COc1ccccc1Cn1cc(C(=O)c2ccc(Cl)cc2)c(=O)c2cc3c(cc21)OCCO3 | inactive: 83%
46 | CCOc1cc2sc(N3CCC(C(=O)Nc4ccccc4Cl)CC3)nc2cc1Br | inactive: 77%

Row | Structure (SMILES) | survival
47 | Cc1ccc(CN2CCC(CNC(=O)c3cc4ccc5cccnc5c4[nH]3)CC2)cc1 | inactive: 89%
48 | O=C(Nn1cnnc1)c1cccc(C(=O)Nn2cnnc2)c1 | inactive: 91%
49 | Cc1cc(S(=O)(=O)C(CNC(=O)COc2ccccc2)c2cccs2)ccc1F (configuration not stated) | inactive: 107%
50 | Cc1ccc(-c2nn(CC(=O)NC3CCCC3)c3c2cnc2ccc(F)cc23)cc1C | inactive: 93%
51 | CCCCC(CC)CNC(=O)c1ccc2c(=O)n(CCOC)c(=O)[nH]c2c1 (configuration not stated) | inactive: 130%
52 | CC(=O)c1cccc(S(=O)(=O)N2CCN(c3ccccc3F)CC2)c1 | inactive: 82%
53 | CC(C)(C)c1ccc(C(=O)NCC(c2cccs2)S(=O)(=O)c2ccc(F)cc2)cc1 (configuration not stated) | inactive: 90%
54 | Cc1ccc(N(CC(=O)NCC(C)c2ccccc2)S(=O)(=O)N(C)C)cc1 (configuration not stated) | inactive: 75%
55 | CCc1sc(Nc2ccc(Cl)cc2)nc1-c1cc2cccc(OC)c2oc1=O | inactive: 70%
56 | Cc1cc(OCC(=O)Nc2cc(-c3nc4ccccc4[nH]3)ccc2C)ccc1Cl | inactive: 96%
57 | CC(C(=O)Nc1ccc(F)c(Cl)c1)N1Cc2ccccc2C1=O (configuration not stated) | active: 8%
58 | COc1ccc(-c2noc(N3CCN(c4cccc(Cl)c4)CC3)n2)cc1OC | inactive: 83%
59 | Cc1ccccc1C(=O)Nc1nnc(SCc2cc(=O)n3ccccc3n2)s1 | inactive: 61%
60 | CCOc1ccc(C(=O)CSc2nnc3cc(C)c4ccccc4n23)cc1 | inactive: 72%
61 | CCOC(=O)c1cc2occc2n1C(C)C(=O)OCC (configuration not stated) | inactive: 80%
62 | COc1ccccc1CNC(=O)COc1cc(=O)n(C)c2ccccc12 | inactive: 62%
63 | CCOc1cc(C(=O)Nc2nnc3n2CCS3)cc(OCC)c1OCC | inactive: 69%
64 | COc1cc(/C=C(\C#N)c2nc3ccc(C)cc3[nH]2)ccc1OC(C)C | active: 46%
65 | O=C(NCc1cccs1)c1cc2sccc2n1Cc1ccccc1 | inactive: 76%
66 | CCc1ccc(S(=O)(=O)c2c[nH]c3cc(OC)c(OC)cc3c2=O)cc1 | inactive: 88%
67 | COc1ccc2cc3cc(C(=O)NCCc4ccccc4)sc3nc2c1Cl | inactive: 69%
68 | Cc1cn2c(=O)cc(COC(=O)c3cccc(NC(=O)COc4ccc(Cl)cc4)c3)nc2s1 | inactive: 102%
69 | COC(=O)c1c(NC(=O)COc2ccccc2Cl)sc2c1CCC(C(C)(C)C)C2 (configuration not stated) | inactive: 131%

Row | Structure (SMILES) | survival
70 | Cc1ccc(CCNC(=O)c2cc3sccc3n2Cc2ccc(F)cc2)cc1 | inactive: 87%
71 | Cc1ccc(C(=O)c2cn(Cc3ccccc3F)c3cc4c(cc3c2=O)OCO4)cc1 | inactive: 75%
72 | COC(=O)c1ccc(Cl)cc1NC(=O)N1CCC(CN2CCCC2)CC1 | inactive: 84%
73 | CCOC(=O)c1sc(N2N=C(C)CC2=O)nc1C | inactive: 76%
74 | N#C/C(=C\c1ccc(Br)cc1)c1nc(-c2cc3cc(Br)ccc3oc2=O)cs1 | inactive: 79%
75 | COc1cc(OC)c(NC(=O)CCn2cccn2)cc1Cl | inactive: 79%
76 | CN(Cc1ccccc1)C(C(=O)NC1CCCCC1)c1ccc(Cl)cc1 (configuration not stated) | active: 37%
77 | Fc1ccc(C(Nc2ccc(Cl)c(C(F)(F)F)c2)c2nnc(-c3ccccc3)o2)cc1 (configuration not stated) | inactive: 71%
78 | Cc1ccccc1NC(=O)Cn1c(=O)n(-c2ccc(CC(=O)NCC3CCCO3)cc2)c(=O)c2ccccc21 (configuration not stated) | inactive: 106%
79 | COc1cccc(NC(=O)C(=O)NCC(c2ccc3c(c2)OCO3)N2CCOCC2)c1 (configuration not stated) | inactive: 49%
80 | O=C(Cn1c(=O)n(-c2ccc(Cl)cc2)c(=O)c2sc3ccccc3c21)NC1CCCCC1 | inactive: 96%
81 | COc1ccc(-c2cc(C(F)(F)F)nc(NCc3ccccc3)n2)cc1 | active: -4%
82 | CCn1nnc(NC(=O)COc2ccccc2)n1 | inactive: 90%
83 | CCOc1cc(C(C#N)N2CCCCC2)ccc1OC (configuration not stated) | inactive: 74%
84 | CCS(=O)(=O)c1nc2ccccc2n1CC(=O)Nc1ccccc1C(=O)OC | inactive: 55%
85 | C1CCN(c2nc(N3CCCC3)nc(N3CCNCC3)n2)C1 | inactive: 97%
86 | CCc1ccc(C(=O)c2c(N)c(-c3nc(-c4ccc5c(c4)OCO5)cs3)c3ccccn23)cc1 | inactive: 106%
87 | Oc1c(C(c2ccc(Br)cc2)N2CCOCC2)sc2nc(-c3ccco3)nn12 (configuration not stated) | inactive: 58%
88 | COc1ccc(CCNC(=O)CCn2c(=O)c3ccccc3n(Cc3c(C)cc(C)cc3C)c2=O)cc1OC | inactive: 89%
89 | COc1ccc2nc3sc(C(=O)N4CCN(c5ccccc5)CC4)cc3cc2c1 | inactive: 109%
90 | CCN(CCCNC(=O)CSc1cc(=O)n(C)c2cc(Cl)ccc12)c1cccc(C)c1 | inactive: 90%
91 | Cc1c2cnn(-c3ccccc3)c(=O)c2c(C)n1CC(=O)N1CCN(c2ccc(F)cc2)CC1 | inactive: 87%
92 | COc1cc(-c2noc(-c3ccc(N4CCOCC4)c([N+](=O)[O-])c3)n2)cc(OC)c1OC | inactive: 66%
